Source: patent US20090054312A1, “SMIPs: Small molecule inhibitors of p27 depletion in cancers and other proliferative diseases” (priority 2007, published 2009)
Read-outs that look alike come from different tables or passages of the source. Where a SMILES comes first, the peptide text is derived from it. The star is where a group is joined. Cbz = O=C(OCc1ccccc1)*

Columns and labels:
[1] = test system: IMR90 normal human fibroblasts; assay: MTT viability assay, IMR90; type: cell-based
Experimental: We next explored the effects of SMIPs on cell viability. […] IC50 values (concentration of 50% growth inhibition) were calculated (Table 4).

[2] = test system: p27 levels in LNCaP-S14 cells; assay: p27 immunofluorescence screening assay in LNCaP-S14 cells; details: for accumulation of p27, fold-induction normalized to DMSO: IF assay, 16 hours; for % positive: Table 1, compounds showing SMIP activity in the secondary screen, p27-positive cells; for % positive / Z score: cell line not given; for Z score: Table 1, standard deviations from plate mean
[3] = test system: LNCaP-S14 cells; assay: MTT viability assay, LNCaP-S14; type: cell-based, human; details: Table 4; for IC50: MTT, 72 h, read-out: IC50 (concentration of 50% growth inhibition), LNCaP-S14; for specificity for killing S14 prostate cancer cells versus IMR90: comparison of IC50 data
Experimental: We next explored the effects of SMIPs on cell viability. S14 and IMR90 cells were exposed to increasing concentrations of SMIPs for 72 h and scored for viability using the MTT assay. IC50 values (concentration of 50% growth inhibition) were calculated (Table 4).
We next compared IC50 values for cytotoxicity of SMIP004 in S14 compared with parental LNCaP cells. […] We are testing whether SMIP-induced cytotoxicity is due to apoptosis.

[4] = test system: p27 levels in S14 cells; assay: p27 immunoblotting in S14 cells; type: cell-based, human; details: for p27 levels in S14 cells, control compounds: proteasome and CDK inhibitors; for p27 upregulation by immunoblotting relative to DMSO: 40 μM single dose, 16 hours, normalized to tubulin, duplicate experiments
Experimental: S14 cells were treated with SMIPs (40 μM) for 16 hours and p27 levels were assayed by immunoblotting. The bar graph represents the average ±SD of two independent experiments normalized to tubulin.
A quantitation of duplicate immunoblotting experiments is shown.
(§1) Cytoplasmic and nuclear protein fractions were prepared and analyzed by immunoblotting with the indicated antibodies. Nucleolin and Tubulin signals served as nuclear and cytoplasmic markers. A quantification of the immunoblotting data is shown.
Next, we assessed the effect of SMIPs on p27 by immunoblotting (IB). S14 cells were incubated with a single dose of SMIPs (40 μM) and p27 levels were determined relative to the DMSO vehicle control. Tubulin reactivity was used as a reference.
In subsequent IB experiments performed in duplicate, we assessed the dose responses for the 3 selected SMIPs.
(§2) Cytoplasmic and nuclear protein fractions were prepared and p27 and SKP2 levels were measured by immunoblotting. For increased subcellular resolution, we also performed biochemical separation into nuclear and cytoplasmic fractions.

[5] = test system: S14 cells; assay: cell cycle distribution by flow cytometry, S14; type: cell-based, human; details: 40 μM, 24 h and 48 h
Experimental: (§3) Cells treated with 40 μM of the indicated SMIPs for 24 and 48 h were analyzed by flow cytometry.
(§4) Finally, we determined the effect of SMIPs on cell cycle distribution. S14 and LNCaP cells were treated with 40 μM compound and harvested for flow cytometric measurement of DNA content after 24 h and 48 h.

[6] = test system: LNCaP cells; assay: cell cycle distribution by flow cytometry, LNCaP; type: cell-based, human; details: 40 μM, 24 h and 48 h
Experimental: as §3, §4

[7] = test system: SKP2 mRNA; assay: qRT-PCR of SKP2 mRNA in S14 cells; type: cell-based, human; details: normalized to b-actin
Source text: (§5) All data were normalized to b-actin and are expressed as arbitrary units (AU).

[8] = test system: p27 mRNA; assay: qRT-PCR of p27 mRNA in S14 cells; type: cell-based, human; details: normalized to b-actin
Source text: as §5

[9] = test system: SKP2 (endogenous SKP2 and Myc-SKP2) in S14 cells; assay: SKP2 immunoblotting in S14 cell fractions; type: cell-based, human; details: 18 h, increasing concentrations
Experimental: as §1, §2

[10] = test system: nuclear p53 protein in S14 cells; assay: p53 immunoblotting in S14 cells; type: cell-based, human; details: 18 h
Experimental: as §1

[11] = test system: p27 levels in DU145 cells; assay: p27 immunoblotting in DU145 cells; type: cell-based, human; details: increasing concentrations, 18 h
[12] = test system: p27 levels in parental LNCaP cells; assay: p27 immunoblotting in parental LNCaP cells; type: cell-based, human; details: increasing concentrations, 18 h
[13] = test system: cyclin E; assay: qRT-PCR of cyclin E in S14 cells; type: cell-based, human
Source text: as §5

[14] = test system: p21 mRNA; assay: qRT-PCR of p21 mRNA in S14 cells; type: cell-based, human; details: normalized to b-actin
Source text: as §5

[15] = test system: parental LNCaP cells (LNCaP-WT); assay: cytotoxicity in parental LNCaP cells; type: cell-based; details: Homo sapiens
Source text: We are testing whether SMIP-induced cytotoxicity is due to apoptosis.

[16] = MTT, 72 h, Table 4, read-out: IC50 (concentration of 50% growth inhibition), IMR90
[17] = SMIP concentration 40 (maximum dose)
[18] = Homo sapiens, IMR-90, MTT, 72 h, Table 4, read-out: IC50 (concentration of 50% growth inhibition), IMR90

CC1CN(C(=O)c2cc(-c3ccc(Cl)cc3)cs2)CC(C)O1 (mixture of isomers) [SMIP002]
IC50 [1, 16]: > 40 µM
accumulation of p27, fold-induction normalized to DMSO ([2]; SMIP concentration 1): 0.15 fold
accumulation of p27, fold-induction normalized to DMSO ([2]; SMIP concentration 5): 0.31 fold
accumulation of p27, fold-induction normalized to DMSO ([2]; SMIP concentration 10): 0.36 fold
accumulation of p27, fold-induction normalized to DMSO [2, 17]: 0.96 fold
IC50 [3]: 11.1 µM

CC(C)C[C@@H](C=O)NC(=O)[C@H](CC(C)C)NC(=O)[C@H](CC(C)C)NC(=O)OCc1ccccc1 [MG132, reference compound] (Cbz-Leu-Leu-Leu-aldehyde)
primary screen outcome ([2]; primary screen, 17-80 μM, duplicate): re-isolated
p27 levels in S14 cells, control compounds [4]: restored

CC(C)(C)c1cc2cc(NC(=O)c3cccs3)ccc2[nH]1 [SMIP001, N-(2-tert-butyl-(1H)-indol-5-yl)-thiophene-2-carboxamide]
IC50 [1, 18]: > 20 µM
accumulation of p27, fold-induction normalized to DMSO ([2]; SMIP concentration 1): 0.94 fold
accumulation of p27, fold-induction normalized to DMSO ([2]; SMIP concentration 5): 1.21 fold
accumulation of p27, fold-induction normalized to DMSO ([2]; SMIP concentration 10): 1.74 fold
accumulation of p27, fold-induction normalized to DMSO ([2]; SMIP concentration 20): 2.16 fold
accumulation of p27, fold-induction normalized to DMSO [2, 17]: 2.90 fold
% positive [2]: 13.27%
Z score [2]: 6.3312
p27 upregulation by immunoblotting relative to DMSO [4]: approximately two-fold
effect on cell cycle distribution [5]: induced a cell cycle arrest in G1
effect on cell cycle distribution [6]: induced a cell cycle arrest in G1
specificity for killing S14 prostate cancer cells versus IMR90 [3]: highest specificity

CCCCc1ccc(NC(C)=O)c(C)c1 [SMIP004, N-(4-butyl-2-methyl-phenyl)acetamide]
SKP2 mRNA [7]: down-regulated
p27 mRNA [8]: upregulated
IC50 ([1]; Homo sapiens, IMR-90, 72 h, Table 5, read-out: IC50, IMR90): > 20 µM
IC50 ([1]; Homo sapiens, IMR-90, 96 h, Table 5, read-out: IC50, IMR90): > 20 µM
IC50 [1, 18]: > 20 µM
effective concentrations in primary screen and follow-up assays [2]: 5 to 40 µM
accumulation of p27, fold-induction normalized to DMSO ([2]; SMIP concentration 1): 0.49 fold
accumulation of p27, fold-induction normalized to DMSO ([2]; SMIP concentration 5): 0.51 fold
accumulation of p27, fold-induction normalized to DMSO ([2]; SMIP concentration 10): 1.45 fold
accumulation of p27, fold-induction normalized to DMSO ([2]; SMIP concentration 20): 3.99 fold
accumulation of p27, fold-induction normalized to DMSO [2, 17]: five-fold
accumulation of p27, fold-induction normalized to DMSO ([2]; SMIP concentration 40 (maximum dose), listed as 004): 5.16 fold
% positive [2]: 51.08%
Z score [2]: 33.7296
p27 upregulation by immunoblotting relative to DMSO [4]: approximately two-fold
induction of p27 in cytoplasmic and nuclear fractions ([4]; 18 h, increasing concentrations): robust, dose-dependent induction
SKP2 and Myc-SKP2 protein level [9]: downregulated
nuclear p53 protein level [10]: not induced
p27 accumulation in DU145 cells [11]: active
effect on cell cycle distribution [5]: induced a cell cycle arrest in G1
effect on cell cycle distribution [6]: induced a cell cycle arrest in G1
p27 accumulation in parental LNCaP cells [12]: led to p27 accumulation
cyclin E [13]: suppressed
IC50 ([3]; Homo sapiens): 1.09 µM
specificity for killing S14 prostate cancer cells versus IMR90 [3]: highest specificity
p21 mRNA [14]: upregulated
IC50 ([15]; 72 h): 40 µM
IC50 ([15]; 96 h): 2.4 µM

O=C(OCn1ncc(Cl)c(Cl)c1=O)c1cccc(C(F)(F)F)c1 [SMIP005]
IC50 [1, 16]: 17.4 µM
accumulation of p27, fold-induction normalized to DMSO ([2]; SMIP concentration 1): 0.02 fold
accumulation of p27, fold-induction normalized to DMSO ([2]; SMIP concentration 5): 1.76 fold
accumulation of p27, fold-induction normalized to DMSO ([2]; SMIP concentration 10): 3.23 fold
accumulation of p27, fold-induction normalized to DMSO ([2]; SMIP concentration 20): 3.93 fold
accumulation of p27, fold-induction normalized to DMSO [2, 17]: 7.26 fold
specificity for killing S14 prostate cancer cells versus IMR90 [3]: good specificity

O=C(OCn1ncc(Cl)c(Cl)c1=O)c1ccc(C(F)(F)F)cc1 [SMIP006]
accumulation of p27, fold-induction normalized to DMSO ([2]; SMIP concentration 1): 0.64 fold
accumulation of p27, fold-induction normalized to DMSO ([2]; SMIP concentration 5): 0.86 fold
accumulation of p27, fold-induction normalized to DMSO ([2]; SMIP concentration 10): 0.88 fold
accumulation of p27, fold-induction normalized to DMSO ([2]; SMIP concentration 20): 2.30 fold
accumulation of p27, fold-induction normalized to DMSO [2, 17]: 7.54 fold
p27 upregulation by immunoblotting relative to DMSO [4]: approximately two-fold
IC50 [3]: 6.63 µM

CS(=O)(=O)c1ccc(C=CC(=O)Nc2cccc(C(F)(F)F)c2)cc1 [SMIP009]
IC50 [1, 16]: > 40 µM
IC50 [3]: > 40 µM

CS(=O)(=O)c1ccc(/C=C/C(=O)Nc2ccccn2)cc1 [SMIP010, 3-[4-(methylsulfonyl)phenyl]-N-(2-pyridinyl)-(2E)-propenamide]
IC50 [1, 18]: > 40 µM
% positive [2]: 13.41%
Z score [2]: 6.4339
p27 upregulation by immunoblotting relative to DMSO [4]: approximately two-fold
effect on cell cycle distribution [5]: did not alter cell cycle distribution
effect on cell cycle distribution [6]: did not alter cell cycle distribution
IC50 ([3]; Homo sapiens): 3.56 µM
specificity for killing S14 prostate cancer cells versus IMR90 [3]: highest specificity

CCOC(=O)c1cc2cccc(NC(=O)c3ccccc3OC(C)=O)c2[nH]1 [SMIP011]
IC50 [1, 16]: ~40 µM
IC50 [3]: > 40 µM

CC(=O)Nc1ccc(S(=O)(=O)N(Cc2ccc3c(c2)CCO3)C2CC2)cc1 [SMIP017]
IC50 [1, 16]: > 40 µM
IC50 [3]: 23.7 µM

Cc1cc(Br)ccc1NC(=O)CCCc1c[nH]c2ccccc12 [SMIP019]
IC50 [1, 16]: ~40 µM
p27 upregulation by immunoblotting relative to DMSO [4]: approximately two-fold

CC[C@H](CO)Nc1nc(NCc2ccccc2)c2ncn(C(C)C)c2n1 [roscovitine, reference compound]
p27 levels in S14 cells, control compounds [4]: upregulated p27
